{"source": "PubChem BioAssay AID1159614", "about": "(National Center for Advancing Translational Sciences (NCATS), 2016)", "note": "About 65 (0.1%) of roughly 45,000 compounds were called active. The call rests on the fitted dose curve; in most records, active means well fitted activation curve with a large enough effect; inconclusive means small, poorly fitted or top-dose-only effect; inactive means no such curve, though single readings can be large or run the other way. The list shows a part of the results."}
{"molecular_target": "Galactocerebrosidase (Homo sapiens) (UniProt P54803)", "sequence (P54803 whole entry, looked up)": "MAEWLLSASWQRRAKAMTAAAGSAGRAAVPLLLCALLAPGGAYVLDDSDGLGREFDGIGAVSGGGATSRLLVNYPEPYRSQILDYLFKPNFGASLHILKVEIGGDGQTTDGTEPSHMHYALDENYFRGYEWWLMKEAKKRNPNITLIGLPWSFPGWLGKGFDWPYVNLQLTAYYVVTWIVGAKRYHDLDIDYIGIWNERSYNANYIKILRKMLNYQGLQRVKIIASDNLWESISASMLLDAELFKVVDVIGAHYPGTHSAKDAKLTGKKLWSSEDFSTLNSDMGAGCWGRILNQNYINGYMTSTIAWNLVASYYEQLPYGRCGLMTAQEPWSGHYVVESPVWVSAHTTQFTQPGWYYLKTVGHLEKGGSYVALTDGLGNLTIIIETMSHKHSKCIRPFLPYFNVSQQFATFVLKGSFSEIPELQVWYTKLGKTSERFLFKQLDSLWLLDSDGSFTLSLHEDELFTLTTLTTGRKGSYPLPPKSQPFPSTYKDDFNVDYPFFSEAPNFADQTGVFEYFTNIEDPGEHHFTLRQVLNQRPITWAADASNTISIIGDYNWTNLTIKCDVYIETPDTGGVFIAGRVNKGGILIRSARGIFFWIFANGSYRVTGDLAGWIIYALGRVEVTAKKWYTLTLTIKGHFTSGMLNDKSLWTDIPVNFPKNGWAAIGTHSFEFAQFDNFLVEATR", "experiment": "A Novel Cell-Based Assay to Identify Small Molecules for B -Galactocerebrosidase; further: 0% is about no effect; nearly all actives have a fitted effect of over 65% in size", "details": "145M-Twi-hGALC-G270D cells (Twitcher mouse brain line with human GALC G270D), HMU-beta-Gal fluorescence, 48 h; series mostly up to 57.5 µM; activation: at the top concentration", "procedure,_shortened": "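Mutant human GALC (G270D), stably expressed in a Twitcher mouse brain cell line lacking endogenous GALC, is measured in live-treated cells via 6-hexadecanoylamino-4-methylumbelliferyl-β-galactoside hydrolysis (0.1 mM final, pH 5.2) with fluorescent detection.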"}
{"smiles": "COc1cccc(-n2c(SCC(=O)Nc3ccc(F)cc3F)nc3c([nH]c4ccccc43)c2=O)c1", "activation": "inactive: -16.2%"}
{"smiles": "c1csc(-c2nc3ccccn3c2Nc2ccc3c(c2)OCCO3)c1", "activation": "inactive: -0.908%"}
{"smiles": "COc1ccc(S(=O)(=O)NCCS(=O)(=O)N2CCN(c3ccccc3F)CC2)cc1", "activation": "inactive: -41.2%"}
{"smiles": "Cc1nnc(N2C(=O)c3oc4ccccc4c(=O)c3C2c2ccc(F)cc2)s1", "note": "(stereo unspecified)", "activation": "inactive: -14.8%"}
{"smiles": "Cc1c(C(=O)NCc2ccc(F)cc2)sc2nc(-c3ccccc3)cn12", "activation": "inactive: 1.64%"}
{"smiles": "CCOc1cc(-c2ccc(OC(=O)c3ccc(Cl)cc3)c(OC)c2)cc(=O)c2c(C)oc(C)c12", "activation": "inactive: -7.08%"}
{"smiles": "COC(=O)c1c(-c2ccc(Cl)cc2)noc1N1CCN(c2cccc(OC)c2)CC1", "activation": "inactive: -10.3%"}
{"smiles": "COc1ccc(CCNC(=O)c2ccc(Cn3c(=O)c4ccccc4n(Cc4ccccc4Cl)c3=O)cc2)cc1OC", "activation": "inactive: 2.28%"}
{"smiles": "CCOc1ccccc1C(=O)NCC(c1ccc(N(C)C)cc1)N1CCc2ccccc21", "note": "(stereo unspecified)", "activation": "inactive: -9.32%"}
{"smiles": "Oc1c(C(c2ccc(Cl)cc2)N2CCCC2)sc2nc(-c3ccco3)nn12", "note": "(stereo unspecified)", "activation": "inactive: -12.6%"}
{"smiles": "COc1cc(-c2nc3cccc(C)n3c2Nc2ccc3c(c2)OCCO3)ccc1O", "activation": "inactive: -16.2%"}
{"smiles": "COc1ccccc1CNC(=O)c1cccc(NC(=O)N2CCSc3ncccc32)c1", "activation": "inactive: -12.5%"}
{"smiles": "CC(=O)c1ccc(N2CCN(c3ncnc4onc(-c5ccc(Cl)cc5)c34)CC2)cc1", "activation": "inactive: -3.86%"}
{"smiles": "CCCCOC(=O)c1ccc(NC(=O)CSc2nc3c(c(=O)[nH]2)CCC3)cc1", "activation": "inactive: -15.1%"}
{"smiles": "O=S(=O)(c1ccccc1)c1nnn2c1nc(NCc1ccccc1)c1cc(Cl)ccc12", "activation": "inactive: -10.6%"}
{"smiles": "CC(C)c1ccc(NC(=O)CCS(=O)(=O)c2ccc3c(c2)CC(=O)N3C)cc1", "activation": "inactive: -6.25%"}
{"smiles": "CCCCCn1cc2c(c1-c1ccccc1Br)c(=O)n(C)c(=O)n2C", "activation": "inactive: -6.87%"}
{"smiles": "O=C(Nc1cccc(F)c1)c1oc2ccccc2c1NC(=O)C12CC3CC(CC(C3)C1)C2", "activation": "inactive: -19%"}
{"smiles": "Cc1ccc2occ(CC(=O)Nc3ccc(S(=O)(=O)N4CCC(C)CC4)cc3)c2c1", "activation": "inactive: -16.8%"}
{"smiles": "Cc1nc2nc(C)c(CCC(=O)NCc3ccccc3)c(C)n2n1", "activation": "inactive: -15.2%"}
{"smiles": "CCOc1ccc2ncc3c(-c4cccc(OC)c4)nn(-c4ccccc4)c3c2c1", "activation": "inactive: 0.102%"}
{"smiles": "CCOCCn1ccc2c(OCC(=O)Nc3cccc(F)c3)cccc2c1=O", "activation": "inactive: -12.5%"}
{"smiles": "CCOc1cc(-c2ccc(OC(=O)c3ccccc3)c(OC)c2)cc(=O)c2c(C)oc(C)c12", "activation": "inactive: -6.27%"}
{"smiles": "CCOc1ccccc1CNCCSc1nnnn1C", "activation": "inactive: -11.6%"}
{"smiles": "COc1cccc(Cc2nc3ccccc3nc2SCC(=O)Nc2cc(OC)ccc2OC)c1", "activation": "inactive: 7.47%"}
{"smiles": "CCC(C)NC(=O)Cn1c(=O)n(Cc2ccc(C(=O)NCc3ccc(C)cc3)cc2)c(=O)c2ccccc21", "note": "(stereo unspecified)", "activation": "inactive: -10.5%"}
